Reference: article PMC4336329 (PLoS ONE, 2015)
Among all 310,000 compounds or so, about 2,200 (0.71%) showed an effect of 50% or more. Effects have a minus sign here. The list shows a part of the results.

target: human ether-à-go-go-related gene (hERG) potassium channel (human, UniProt Q12809); test: primary screen, population patch clamp on CHO cells stably expressing hERG
Sequence (Q12809 whole entry, looked up): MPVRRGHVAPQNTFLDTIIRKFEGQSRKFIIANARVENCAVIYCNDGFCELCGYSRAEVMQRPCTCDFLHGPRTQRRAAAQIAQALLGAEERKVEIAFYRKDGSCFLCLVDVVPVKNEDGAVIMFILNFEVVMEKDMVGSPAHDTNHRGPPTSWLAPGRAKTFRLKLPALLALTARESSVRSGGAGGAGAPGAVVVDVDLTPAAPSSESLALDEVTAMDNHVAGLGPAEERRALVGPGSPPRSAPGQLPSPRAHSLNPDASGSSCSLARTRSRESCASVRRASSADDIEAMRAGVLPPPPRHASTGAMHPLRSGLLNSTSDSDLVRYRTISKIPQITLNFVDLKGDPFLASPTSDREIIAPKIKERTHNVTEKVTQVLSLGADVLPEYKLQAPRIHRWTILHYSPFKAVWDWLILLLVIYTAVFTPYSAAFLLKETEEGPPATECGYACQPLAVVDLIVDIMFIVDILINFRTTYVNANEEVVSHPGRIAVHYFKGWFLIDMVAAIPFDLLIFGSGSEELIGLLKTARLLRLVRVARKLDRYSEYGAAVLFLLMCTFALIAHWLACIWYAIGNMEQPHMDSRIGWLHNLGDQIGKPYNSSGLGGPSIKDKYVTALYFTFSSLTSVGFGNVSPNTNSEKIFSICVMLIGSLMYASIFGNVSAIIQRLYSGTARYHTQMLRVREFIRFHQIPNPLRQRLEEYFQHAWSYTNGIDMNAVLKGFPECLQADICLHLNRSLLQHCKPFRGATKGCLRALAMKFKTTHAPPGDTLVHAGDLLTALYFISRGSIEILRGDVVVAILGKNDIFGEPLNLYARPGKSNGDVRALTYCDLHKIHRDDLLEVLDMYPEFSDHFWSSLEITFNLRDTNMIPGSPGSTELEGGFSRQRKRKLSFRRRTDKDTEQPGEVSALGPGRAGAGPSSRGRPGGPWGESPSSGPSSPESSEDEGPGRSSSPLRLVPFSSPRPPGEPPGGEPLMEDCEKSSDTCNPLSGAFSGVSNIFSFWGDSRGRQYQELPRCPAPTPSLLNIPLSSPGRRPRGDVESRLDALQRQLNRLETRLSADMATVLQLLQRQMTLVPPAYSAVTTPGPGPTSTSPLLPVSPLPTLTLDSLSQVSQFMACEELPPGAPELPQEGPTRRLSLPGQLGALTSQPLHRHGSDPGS

| SMILES | hERG current change (%, negative = inhibition) at 1uM |
| --- | --- |
| Cc1ccc2cccc(OC(=O)/C=C\c3ccccc3)c2n1 | 0.712% |
| CCOc1ccc(N(C)C(=O)CCc2nnc3ccc(N4CCC5(CC4)OCCO5)nn23)cc1 | 13.2% |
| COC(=O)c1ccccc1NC(=O)CSc1ncccn1 | 10.5% |
| O=S(=O)(c1ccc(F)c(F)c1)N1CCCc2ccccc21 | 12.2% |
| COc1ccccc1-n1ccnc(SCC(=O)NCc2ccccc2)c1=O | 19.4% |
| Cc1nn(-c2ccccc2)c(N)c1C(O)(C(F)(F)F)C(F)(F)F | 14.1% |
| O=c1c(C(c2ccc(F)cc2)c2c(O)nc3n(c2=O)CCCS3)c(O)nc2n1CCCS2 | 16.5% |
| O=C(NCCOc1ccc(F)cc1)C1CCC(=O)N(CC2CCCCC2)C1 (stereo not drawn) | -5.97% |
| Cc1c(NC(=O)CSc2ccc(Cl)cc2)c(=O)n(-c2ccccc2)n1C | 7.17% |
| COC(=O)c1ccc(/C=N/NC(=O)CCSc2nc3ccccc3s2)cc1 | 4.17% |
| COCc1nnc(NC(=O)c2cc3ccccc3o2)s1 | 26.8% |
| Cc1ccccc1N1C(=O)NC(=O)/C(=C\c2ccc3c(c2)CCCN3Cc2ccccc2)C1=O | 12.9% |
| C=CCN(CC=C)Cc1c(C)[nH]c2c(C)c(C)ccc2c1=O | -2.31% |
| Cc1ccc(C(C)C)c(OCC(=O)NN2C(=O)c3ccccc3C2=O)c1 | 9.73% |
| C#CCOCCOCCOCCNc1nc(OC)nc(N2CCN(C(=O)[C@H](CCC(=O)O)n3cc(C(N)CO)nn3)CC2)n1.Cl (stereo partly drawn) | 16.5% |
| CC(C(=O)NCC1CCCO1)n1cc([N+](=O)[O-])cn1 (stereo not drawn) | 6.17% |
| CN(C(=O)CSc1nnc(-c2ccc(C(C)(C)C)cc2)n1C)C1CCS(=O)(=O)C1 (stereo not drawn) | 11.9% |
| O=C(N/N=C/c1ccc([N+](=O)[O-])s1)C(O)c1ccccc1 (stereo not drawn) | 13.8% |
| Cn1c(=O)c([N+](=O)[O-])c(-n2cnc3ccccc32)c2ccccc21 | 7.83% |
| CCOC(=O)c1nc2sc3c(c2c(=O)n1C(C)C(=O)OCC)CCCC3 (stereo not drawn) | 16.7% |
| CN(Cc1ccccc1)C(=O)CN1C(=O)c2ccccc2S1(=O)=O | 10.2% |
| COc1ccccc1C(=O)COC(=O)CCNS(=O)(=O)c1ccc(C)c(C)c1 | 8.59% |

| SMILES | hERG current change (%, negative = inhibition) at 1uM |
| --- | --- |
| Cc1c(C(=O)Nc2ccccc2F)cnn1-c1ccccc1 | 14.9% |
| CC(C)CC(=O)NC(=S)NNC(=O)c1cccc([N+](=O)[O-])c1 | 9.65% |
| CSc1nsc(SCC(=O)Nc2ccccc2C(N)=O)n1 | 10.5% |
| COc1ccc(NS(=O)(=O)c2cccc(-c3nnc4n3CCCCC4)c2)cc1 | 6.38% |
| O=C(C1=C[C@H](c2ccccc2)C[C@H](OCc2ccc(CO)cc2)O1)N1CCOCC1 | 13.9% |
| O=C(COC(=O)c1ccccc1)Nc1ccccc1Br | -5.29% |
| COC(=O)C1=C(C)N=c2s/c(=C/c3ccoc3)c(=O)n2C1c1ccccc1 (stereo not drawn) | 7.23% |
| CCCOc1ccc(N2C(=O)CC(NCc3ccncc3)C2=O)cc1 (stereo not drawn) | 1.11% |
| O=c1c2c(-c3cccs3)csc2ncn1/N=C/c1ccccn1 | 10.8% |
| O=C(COC(=O)CCCNC(=O)c1ccc(Cl)cc1)Nc1ccc(Br)cc1 | 2.2% |
| Cc1ccc(NC(=O)CN(C)C(=O)c2cccc(S(=O)(=O)NCc3ccco3)c2)cc1 | 5.16% |
| CCOC(=O)N1CCN(C(=O)CSc2nc(=O)n3cc(C)ccc3n2)CC1 | -4.56% |
| CCn1c(SCC(=O)Nc2ccccc2F)nc2c(c1=O)SC(C)C2 (stereo not drawn) | 8.42% |
| Cc1cccc(-n2ncc3c(=O)[nH]c(SCC(=O)N4CC(=O)Nc5ccccc54)nc32)c1 | 14.6% |
| CC(C)OC(=O)CSc1nc(-c2ccc(F)cc2)nc2ccc(F)cc12 | 4.59% |
| COc1ccc(C(C(=O)NC(C)(C)C)N(CCc2ccccc2)C(=O)CCC(=O)Nc2cc(C)on2)cc1 (stereo not drawn) | -9.67% |
| CCc1ccc(NC(=O)Cn2cc([N+](=O)[O-])nc2C)cc1 | 14.1% |
| COC(=O)c1ccccc1NC(=S)N(Cc1ccc2c(c1)OCO2)Cc1cc2cc(C)ccc2[nH]c1=O | 10.6% |
| CN1CC(=O)N(CC(=O)Nc2ccc(N3CCOCC3)cc2)C1=O | 7.8% |
| CCCOc1ccc(C2c3c(oc4cc(C)c(C)cc4c3=O)C(=O)N2CCCN2CCOCC2)cc1 (stereo not drawn) | 7.1% |
| COc1ccccc1N(CC(=O)Nc1cccnc1)S(C)(=O)=O | 14.3% |
| CCN(CC)CCn1c(=S)[nH]c2cc3c(cc2c1=O)OCO3 | -6.43% |

| SMILES | hERG current change (%, negative = inhibition) at 1uM |
| --- | --- |
| CN(C)CCOC(=O)/C(=C/c1cn(C)c2ccccc12)NC(=O)c1ccccc1 | 10.5% |
| Cn1c(NC(=O)/C=C\c2ccccc2)cc(=O)n(C)c1=O | 7.76% |
| Cn1c(=O)[nH]c2sc3c(c2c1=O)CC(C)(C)OC3 | -7.97% |
| O=C(c1ccccc1NS(=O)(=O)c1ccc(F)cc1)N1CCCC1 | -6.03% |
| CCCC(c1nnnn1CS(=O)(=O)c1ccc(C)cc1)N1CCN(c2ccccc2)CC1 (stereo not drawn) | 8.22% |
| CN1C(C(=O)Nc2cccc(O)c2)=CC(c2ccco2)=NS1(=O)=O | 7.8% |
| CCn1c(CNc2ccc(OC)cc2)nnc1SCC(=O)c1ccc(OC)cc1 | -2.83% |
| CCN(CCn1cccn1)C(=O)c1ccc(OC2CCN(C(=O)COC)CC2)cc1 | 11.4% |
| O=C(COc1ccc(S(=O)(=O)NCCc2ccccc2)cc1)N1CCCC1 | 5.8% |
| O=C1OC(CC(=O)N(Cc2nnc(-c3ccccc3Cl)o2)C2CC2)c2ccccc21 (stereo not drawn) | 15.1% |
| C/C(=N\NC(=O)c1ccccc1)c1ccc(-n2ccnc2)cc1 | 8.54% |
| CC(=O)c1ccc(NC(=O)C2CCCO2)cc1 (stereo not drawn) | 13.3% |
| CCc1nnc(NC(=O)CCC(=O)NCCc2ccc(OC)c(OC)c2)s1 | 18.4% |
| CCC(O)c1nc2ccccc2n1CCc1ccccc1 (stereo not drawn) | 6.15% |
| COc1ccc([N+](=O)[O-])cc1NC(=O)CSCc1ccc(Br)cc1 | 1.65% |
| C=CCNC(=S)NNC(=O)c1cccn(Cc2ccc(Cl)cc2Cl)c1=O | 7.44% |
| CC1(C)CC(NC(=S)Nc2ccc(S(N)(=O)=O)cc2)CC(C)(C)N1 | 15.5% |
| CCN(CC)CCNC(=O)c1c(O)c2cc(OC)c(OC)cc2[nH]c1=O.Cl | 9.48% |
| CCOC(=O)C1=C(C)N(c2ccc(Cl)cc2)C(=O)NC1c1cccc([N+](=O)[O-])c1 (stereo not drawn) | -7.59% |
| COc1ccccc1NC(=O)COC(=O)C1CC2C=CC1C2 (stereo not drawn) | 7.92% |
| COc1ccc(S(=O)(=O)N2CCCCC2)cc1NS(=O)(=O)c1ccccc1F | 4.42% |
| COc1ccc(CN(CC(=O)NC2CCCC2)C(=O)c2csnn2)cc1 | 3.85% |

| SMILES | hERG current change (%, negative = inhibition) at 1uM |
| --- | --- |
| CC(C)[C@H](NC(=O)c1ccccc1Cl)C(=O)OCc1cc(=O)n2cc(Br)ccc2n1 | -6.52% |
| CCOc1nc(NC(=O)NS(=O)(=O)Oc2ccccc2Cl)nc(-c2ccccc2)n1 | 3.9% |
| CCc1nonc1NC(=O)COc1cc(C)c(Cl)c(C)c1 | 11.4% |
| CCCCOC(=O)C1CCCC(C)N1.Cl (stereo not drawn) | 16.6% |
| COc1ccc([N+](=O)[O-])cc1NCC(=O)c1ccc(C)cc1 | 16.4% |
| Cn1c(=O)n(-c2cccc(Cl)c2)c(=O)n1C | 2.58% |
| Cc1ccc(C(C)C)c(OCC(=O)NCC(c2cccs2)N2CCOCC2)c1 (stereo not drawn) | -15.3% |
| Cc1c(NC(=O)COC(=O)/C=C/c2ccc(Cl)cc2)c(=O)n(-c2ccccc2)n1C | 9.08% |
| O=C(Nc1cccc(NC(=O)c2ccc(F)cc2)c1)c1ccc(F)cc1 | 10.7% |
| O=C(/C=C/c1ccc(O)cc1)c1c(O)cc(O)cc1O | 13.8% |
| C/C(=N\NC(=O)C(=O)Nc1ccc(C)cc1)c1ccncc1 | 1.8% |
| COc1ccc(CN2CCN(Cc3ccc(CO)o3)CC2CCO)cc1C (stereo not drawn) | 5% |
| CCOCCCNC(=O)C(NC(=O)c1ccccn1)c1ccc(C)cc1 (stereo not drawn) | -0.187% |
| O=C(COC(=O)c1ccc(=O)n(Cc2ccccc2)n1)Nc1ccc2c(c1)OCCO2 | 8.18% |
| Cc1ccc(C=C2C(Cl)=C(Cl)C(Cl)=C2Cl)cc1 | 9.82% |
| COC(=O)C1=C(c2cccc(OCc3ccccc3)c2)C[C@@H]2CC[C@H]1N2C(=O)NCc1cccc(C(F)(F)F)c1 | 19.3% |
| NC(=O)c1cc([N+](=O)[O-])ccc1NCCc1ccccc1 | 14.5% |
| Cc1cccc(COCC(Cc2ccccc2)N2CCN(C(=O)c3cccc(C)c3)CCC2=O)c1 (stereo not drawn) | 6.78% |
| Cc1nc2ccccc2n1Cc1ccc(Br)cc1 | 8.25% |
| Cc1ccc(NC(=O)COC(=O)CC2CCCC2)cc1Cl | 9.82% |
| CSc1ncc(Cl)c(C(=O)Nc2ccccc2Cl)n1 | 14.8% |
